# Assay results as given in the supplement of paper PMC8728848.
# The list shows a part of the results.
# B1: MAL-II (Maackia amurensis), P93248 (protein)
# chain: ATSNSKPTQVLLATFLTFFFLLLNNVNSSDELSFTINNFVPNEADLLFQGEASVSSTGVLQLTRVENGQPQQYSVGRALYAAPVRIWDNTTGSVASFSTSFTFVVKAPNPTITSDGLAFFLAPPDSQIPSGRVSKYLGLFNNSNSDSSNQIVAVEFDTYFGHSYDPWDPNYRHIGIDVNGIESIKTVQWDWINGGVAFATITYLAPNKTLIASLVYPSNQTSFIVAASVDLKEILPEWVRVGFSAATGYPTQVETHDVLSWSFTSTLEANSDAATENNVHIARYTA
# Key:
# Assay in all cases: glycan array binding signal (z-score within array); higher = stronger binding
# Conditions in all cases: glycan notation: IUPAC condensed, linker removed
# [1] = molecular target: Neu5Ac(a2-3)Gal(b1-3)GalNAc6S
# How it was run: (§1)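 From the Consortium for Functional Glycomics database, 3228 arrays were curated, keeping only those whose protein sequence was available. Binding is given as a within-array Z-score averaged across arrays sharing a protein sequence and across linkers. Negative Z-scores can be read as non-binding.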
# [2] = molecular target: Neu5Ac(a2-3)Gal(b1-3)GlcNAc
# How it was run: as §1
# [3] = molecular target: Neu5Ac(a2-3)Gal(b1-3)GlcNAc(b1-2)Man
# How it was run: as §1
# [4] = molecular target: Neu5Ac(a2-3)Gal(b1-3)GlcNAc(b1-2)Man(a1-3)[GlcNAc(b1-4)][Neu5Ac(a2-3)Gal(b1-3)GlcNAc(b1-2)Man(a1-6)]Man(b1-4)GlcNAc(b1-4)GlcNAc
# How it was run: as §1
# [5] = molecular target: Neu5Ac(a2-3)Gal(b1-3)GlcNAc(b1-2)Man(a1-3)[Neu5Ac(a2-3)Gal(b1-3)GlcNAc(b1-2)Man(a1-6)]Man(b1-4)GlcNAc(b1-4)GlcNAc
# How it was run: as §1
# [6] = molecular target: Neu5Ac(a2-3)Gal(b1-3)GlcNAc(b1-3)Gal(b1-3)GlcNAc
# How it was run: as §1
# [7] = molecular target: Neu5Ac(a2-3)Gal(b1-3)GlcNAc(b1-3)Gal(b1-4)GlcNAc
# How it was run: as §1
# [8] = molecular target: Neu5Ac(a2-3)Gal(b1-3)GlcNAc(b1-3)GalNAc
# How it was run: as §1
# [9] = molecular target: Neu5Ac(a2-3)Gal(b1-3)GlcNAc(b1-4)Gal(b1-4)Glc
# How it was run: as §1
# [10] = molecular target: Neu5Ac(a2-3)Gal(b1-3)GlcNAc(b1-6)GalNAc
# How it was run: as §1
# [11] = molecular target: Neu5Ac(a2-3)Gal(b1-3)GlcNAc6S
# How it was run: as §1
# [12] = molecular target: Neu5Ac(a2-3)Gal(b1-3)[Fuc(a1-4)]GlcNAc
# How it was run: as §1
# [13] = molecular target: Neu5Ac(a2-3)Gal(b1-3)[Fuc(a1-4)]GlcNAc(b1-3)Gal(b1-3)[Fuc(a1-4)]GlcNAc
# How it was run: as §1
# [14] = molecular target: Neu5Ac(a2-3)Gal(b1-3)[Fuc(a1-4)]GlcNAc(b1-3)Gal(b1-4)[Fuc(a1-3)]GlcNAc
# How it was run: as §1
# [15] = molecular target: Neu5Ac(a2-3)Gal(b1-3)[GlcNAc(b1-6)]GalNAc
# How it was run: as §1
# [16] = molecular target: Neu5Ac(a2-3)Gal(b1-3)[Neu5Ac(a2-3)Gal(b1-4)]GlcNAc
# How it was run: as §1
# [17] = molecular target: Neu5Ac(a2-3)Gal(b1-3)[Neu5Ac(a2-6)]GalNAc
# How it was run: as §1
# [18] = molecular target: Neu5Ac(a2-3)Gal(b1-3)[Neu5Ac(a2-6)]GlcNAc(b1-3)[Fuc(a1-3)[Gal(b1-4)]GlcNAc(b1-6)]Gal(b1-4)Glc
# How it was run: as §1
# [19] = molecular target: Neu5Ac(a2-3)Gal(b1-3)]Neu5Ac(a2-3)Gal(b1-4)]GlcNAc
# How it was run: as §1
# Neu5Ac(a2-3)Gal(b1-4)Glc = molecular target: Neu5Ac(a2-3)Gal(b1-4)Glc
# How it was run: as §1
# [20] = molecular target: Neu5Ac(a2-3)Gal(b1-4)GlcNAc
# How it was run: as §1
# [21] = molecular target: Neu5Ac(a2-3)Gal(b1-4)GlcNAc(b1-2)Man
# How it was run: as §1
# [22] = molecular target: Neu5Ac(a2-3)Gal(b1-4)GlcNAc(b1-2)Man(a1-3)[GlcNAc(b1-2)Man(b1-4)GlcNAc(b1-2)Man(a1-6)]Man(b1-4)GlcNAc(b1-4)GlcNAc
# How it was run: as §1
# [23] = molecular target: Neu5Ac(a2-3)Gal(b1-4)GlcNAc(b1-2)Man(a1-3)[GlcNAc(b1-4)][Neu5Ac(a2-3)Gal(b1-4)GlcNAc(b1-2)Man(a1-6)]Man(b1-4)GlcNAc(b1-4)GlcNAc
# How it was run: as §1
# [24] = molecular target: Neu5Ac(a2-3)Gal(b1-4)GlcNAc(b1-2)Man(a1-3)[Neu5Ac(a2-3)Gal(b1-4)GlcNAc(b1-2)Man(a1-6)]Man(b1-4)GlcNAc(b1-4)GlcNAc
# How it was run: as §1
# [25] = molecular target: Neu5Ac(a2-3)Gal(b1-4)GlcNAc(b1-2)Man(a1-3)[Neu5Ac(a2-3)Gal(b1-4)GlcNAc(b1-2)Man(a1-6)]Man(b1-4)GlcNAc(b1-4)[Fuc(a1-6)]GlcNAc
# How it was run: as §1
# [26] = molecular target: Neu5Ac(a2-3)Gal(b1-4)GlcNAc(b1-2)Man(a1-3)[Neu5Ac(a2-6)Gal(b1-4)GlcNAc(b1-2)Man(a1-6)]Man(b1-4)GlcNAc(b1-4)GlcNAc
# How it was run: as §1
# [27] = molecular target: Neu5Ac(a2-3)Gal(b1-4)GlcNAc(b1-2)[Neu5Ac(a2-3)Gal(b1-4)GlcNAc(b1-4)]Man(a1-3)[GlcNAc(b1-4)][Neu5Ac(a2-3)Gal(b1-4)GlcNAc(b1-2)[Neu5Ac(a2-3)Gal(b1-4)GlcNAc(b1-6)]Man(a1-6)]Man(b1-4)GlcNAc(b1-4)GlcNAc
# How it was run: as §1
# [28] = molecular target: Neu5Ac(a2-3)Gal(b1-4)GlcNAc(b1-2)[Neu5Ac(a2-3)Gal(b1-4)GlcNAc(b1-4)]Man(a1-3)[GlcNAc(b1-4)][Neu5Ac(a2-3)Gal(b1-4)GlcNAc(b1-4)Man(a1-6)]Man(b1-4)GlcNAc(b1-4)GlcNAc
# How it was run: as §1
# [29] = molecular target: Neu5Ac(a2-3)Gal(b1-4)GlcNAc(b1-2)[Neu5Ac(a2-3)Gal(b1-4)GlcNAc(b1-6)]Man(a1-6)[Neu5Ac(a2-3)Gal(b1-4)GlcNAc(b1-2)Man(a1-3)]Man(b1-4)GlcNAc(b1-4)GlcNAc
# How it was run: as §1
# [30] = molecular target: Neu5Ac(a2-3)Gal(b1-4)GlcNAc(b1-2)[Neu5Ac(a2-3)Gal(b1-4)GlcNAc(b1-6)]Man(a1-6)[Neu5Ac(a2-3)Gal(b1-4)GlcNAc(b1-2)Man(a1-3)][GlcNAc(b1-4)]Man(b1-4)GlcNAc(b1-4)GlcNAc
# How it was run: as §1
# [31] = molecular target: Neu5Ac(a2-3)Gal(b1-4)GlcNAc(b1-3)Gal
# How it was run: as §1
# [32] = molecular target: Neu5Ac(a2-3)Gal(b1-4)GlcNAc(b1-3)Gal(b1-3)GlcNAc
# How it was run: as §1
# [33] = molecular target: Neu5Ac(a2-3)Gal(b1-4)GlcNAc(b1-3)Gal(b1-4)GlcNAc
# How it was run: as §1
# [34] = molecular target: Neu5Ac(a2-3)Gal(b1-4)GlcNAc(b1-3)Gal(b1-4)GlcNAc(b1-2)Man(a1-3)[Neu5Ac(a2-3)Gal(b1-4)GlcNAc(b1-3)Gal(b1-4)GlcNAc(b1-2)Man(a1-6)]Man(b1-4)GlcNAc(b1-4)GlcNAc
# How it was run: as §1
# [35] = molecular target: Neu5Ac(a2-3)Gal(b1-4)GlcNAc(b1-3)Gal(b1-4)GlcNAc(b1-3)Gal(b1-4)GlcNAc
# How it was run: as §1
# [36] = molecular target: Neu5Ac(a2-3)Gal(b1-4)GlcNAc(b1-3)Gal(b1-4)GlcNAc(b1-3)Gal(b1-4)GlcNAc(b1-2)Man(a1-3)[Neu5Ac(a2-3)Gal(b1-4)GlcNAc(b1-3)Gal(b1-4)GlcNAc(b1-3)Gal(b1-4)GlcNAc(b1-2)Man(a1-6)]GalNAc
# How it was run: as §1
# [37] = molecular target: Neu5Ac(a2-3)Gal(b1-4)GlcNAc(b1-3)Gal(b1-4)GlcNAc(b1-3)GalNAc
# How it was run: as §1
binder,measurement,setting,value
B1,glycan array binding signal (z-score),[1],5.77
same,glycan array binding signal (z-score),[2],-0.139
same,glycan array binding signal (z-score),[3],0.033
same,glycan array binding signal (z-score),[4],-0.155
same,glycan array binding signal (z-score),[5],-0.073
same,glycan array binding signal (z-score),[6],-0.183
same,glycan array binding signal (z-score),[7],-0.189
same,glycan array binding signal (z-score),[8],-0.143
same,glycan array binding signal (z-score),[9],-0.215
same,glycan array binding signal (z-score),[10],-0.245
same,glycan array binding signal (z-score),[11],-0.11
same,glycan array binding signal (z-score),[12],-0.196
same,glycan array binding signal (z-score),[13],-0.191
same,glycan array binding signal (z-score),[14],-0.221
same,glycan array binding signal (z-score),[15],3.23
same,glycan array binding signal (z-score),[16],-0.241
same,glycan array binding signal (z-score),[17],7.48
same,glycan array binding signal (z-score),[18],-0.18
same,glycan array binding signal (z-score),[19],-0.202
same,glycan array binding signal (z-score),Neu5Ac(a2-3)Gal(b1-4)Glc,-0.167
same,glycan array binding signal (z-score),[20],-0.137
same,glycan array binding signal (z-score),[21],-0.06
same,glycan array binding signal (z-score),[22],-0.099
same,glycan array binding signal (z-score),[23],-0.389
same,glycan array binding signal (z-score),[24],-0.229
same,glycan array binding signal (z-score),[25],-0.268
same,glycan array binding signal (z-score),[26],-0.24
same,glycan array binding signal (z-score),[27],-0.279
same,glycan array binding signal (z-score),[28],-0.282
same,glycan array binding signal (z-score),[29],-0.087
same,glycan array binding signal (z-score),[30],-0.334
same,glycan array binding signal (z-score),[31],-0.196
same,glycan array binding signal (z-score),[32],-0.166
same,glycan array binding signal (z-score),[33],-0.096
same,glycan array binding signal (z-score),[34],0.685
same,glycan array binding signal (z-score),[35],0.001
same,glycan array binding signal (z-score),[36],0.4
same,glycan array binding signal (z-score),[37],-0.108
